# Laboratory results taken from PubChem BioAssay AID1745853 (National Center for Advancing Translational Sciences (NCATS), 2022).
# The other results are listed elsewhere or left out. Further columns of the screen follow, without active or inactive calls.
# What was measured:
# Experiment in all cases: Primary Screen for Target Class Profiling of Small Molecule Inhibitors of Methyltransferases
# [1] = target: Guanidinoacetate N-methyltransferase (Homo sapiens) (UniProt Q14353); details: purified enzyme, MTase-Glo SAH luminescence; measured here: GAMT inhibition; at 40 µM; stronger effect = lower value
# In short: (§1)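 Each enzyme was reacted with SAM and its substrate, with compounds tested once at 40 uM; SAH formed was read by MTase-Glo luminescence.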
# [2] = target: Nicotinamide N-methyltransferase (Homo sapiens) (UniProt P40261); details: purified enzyme, MTase-Glo SAH luminescence; measured here: NNMT inhibition; at 40 µM; stronger effect = lower value
# In short: as §1
# [3] = target: Phenylethanolamine N-methyltransferase (Homo sapiens) (UniProt P11086); details: purified enzyme, MTase-Glo SAH luminescence; measured here: PNMT inhibition; at 40 µM; stronger effect = lower value
# In short: as §1
# [4] = target: Glycine N-methyltransferase (Homo sapiens) (UniProt Q14749); details: purified enzyme, MTase-Glo SAH luminescence; measured here: GNMT inhibition; at 40 µM; stronger effect = lower value
# In short: as §1
# [5] = target: Histamine N-methyltransferase (Homo sapiens) (UniProt P50135); details: purified enzyme, MTase-Glo SAH luminescence; measured here: HNMT inhibition; at 40 µM; stronger effect = lower value
# In short: as §1
# % is scaled to controls: 0 for no effect and ±100 for the full control effect.
SMILES,"activity change, negative = inhibition [1] [%]","activity change, negative = inhibition [2] [%]","activity change, negative = inhibition [3] [%]","activity change, negative = inhibition [4] [%]","activity change, negative = inhibition [5] [%]"
Cc1ccc(NS(=O)(=O)c2cc3c(cc2Cl)CCC(=O)N3)cc1Cl,-11.8,-19.7,-3.83,–,–
CC1=C2C[C@@]3(C)[C@@H](CCC[C@@H]3C)C[C@@]2(O)OC1=O,7.05,-7.35,3.52,3.23,13.4
COc1cc(Nc2nc3c(s2)CCCC3c2ccccc2)ccc1-n1cnc(C)c1 (stereo not drawn),6.27,-5.87,3.27,4.78,7.25
CC(C)CCNC(=O)Cn1ccc2cc(S(=O)(=O)N3CCCC3)ccc21,1.74,1.01,-4.31,-0.212,-8.9
COc1ccc(OC)c2c1cc1n2CC(C)(C(=O)NC2CCCCC2C)N(Cc2ccccn2)C1=O (stereo not drawn),0,-12.2,2.6,1.54,8.71
CCOCCCNC(=O)CCc1nc(C2CCCN2C(=O)c2ccccc2)no1 (stereo not drawn),-2.37,-3.03,-1.26,-1.3,1.5
Cn1c(=O)c2ccc(C(=O)NC3CCCC3)cc2n2c(=O)n(CC(=O)c3cccc(Cl)c3)nc12,0,1.36,2.21,2.77,0.039
O=C1NCCN2CC3(CCN(C(=O)C4(c5ccccc5)CC4)CC3)CC12 (stereo not drawn),-1.66,-3.29,-6.96,-10.2,-2.4
O=S(=O)(NCC1CCOCC1)c1cccc(F)c1,1.51,-1.08,1.32,0.879,2.36
C[C@@H]1CN(Cc2ccccc2)C[C@H]1c1nc2c(cnn2C2CCOCC2)c(=O)[nH]1,-3.47,-22.2,-9.46,-3.09,-1.46
O=C(NCc1ccccn1)c1ccc2c(=O)nc3c(-c4cccc(F)c4)n[nH]n3c2c1,4.09,0.257,-5.48,-11.7,0.639
Cc1cc(C2CCCN2C(=O)c2ccnn2C)on1 (stereo not drawn),-4.59,-1.52,2.66,-1.62,-1.87
CCn1c(CO)nnc1C1CC(NC(=O)CCc2c(C)nn(C)c2C)C1 (stereo not drawn),-6.69,-9.65,-2.17,-5.38,-0.976
CC1=Nc2cc(C(=O)NCCCN(C)C)ccc2Sc2ccc(F)cc21,0.416,-10.7,0.414,-4.26,-42.7
CCC(C)NC(=O)c1ccc2c(=O)n(C)c3nn(CC(=O)NC4CCCCC4)c(=O)n3c2c1 (stereo not drawn),0.515,4.91,7.61,6.13,7.95
CC(C)OCCCn1c(=O)c2ccccc2n2c(=O)n(Cc3ccc(F)cc3)nc12,-0.717,-19.1,-6.79,-9.52,1.71
CCC(C)NC(=O)c1ccc2c(=O)n(C)c3nnc(SCc4ccc(Cl)cc4)n3c2c1 (stereo not drawn),2.83,7.18,7.51,10.4,12.5
CC(C)OCCCn1c(=O)c2ccccc2n2c(CCC(=O)NCc3ccccc3)nnc12,5.39,7.52,-9.44,-7.75,-1.21
COC(=O)c1ncn2c1C(=O)N(Cc1ccc(C)cc1)C(C)(C(=O)NCc1ccccc1)C2 (stereo not drawn),-0.334,-10.8,-12.4,-16.4,-13.5
CCC(C)NC(=O)c1ccc2c(=O)n(C3CC3)c3nn(CC(=O)Nc4ccccc4F)c(=O)n3c2c1 (stereo not drawn),1.25,-3.95,-0.03,-3.12,2.59
O=C1NC2(CCCN(C(=O)Cc3ccccc3)C2)COc2ccccc21 (stereo not drawn),-4.16,-19.2,-20.5,-7.38,-3.4
CCC1COCCN1C(=O)c1coc(COc2ccc3c(c2)OCO3)n1 (stereo not drawn),-1.05,-5.7,-1.47,-2.23,-2.88
C[C@@H]1O[C@@H](O[C@H]2[C@H](OC(=O)C34CCC5(C)C(=CCC6C7(C)CC(O)C(O[C@@H]8O[C@H](C(=O)O)[C@@H](O)[C@H](O)[C@H]8O)C(C)(C(=O)O)C7CCC65C)C3CC(C)(C)CC4O)O[C@H](C)[C@@H](O)[C@@H]2O)[C@H](O)[C@@H](O[C@@H]2OC[C@](O)(CO)[C@H]2O[C@@H]2O[C@H](CO)[C@@H](O)[C@H](O)[C@H]2O)[C@H]1O (stereo partly drawn),3.38,-9.27,-0.25,4.42,9.7
CC(C(=O)O)c1ccc2c(c1)CC(=O)c1ccccc1S2 (stereo not drawn),0.641,-18.7,2.85,-17.5,13.3
O=[S+]([O-])(CCC(F)(F)F)N1CCN(Cc2ccccc2-c2cccnc2)CC1,-1.1,-11.3,-8.19,-2.42,-2.17
CCc1ccccc1N1C(=O)c2c(NC(C)=O)c3cc(F)ccc3n2CC1(C)C(=O)NC1CCCC1 (stereo not drawn),6.64,6.26,-1.35,5.08,1.64
COc1cccc(-c2nc3cnccn3c2NCCC(=O)N2CCN(C(C)C)CC2)c1,-2.37,-8.94,-5.35,-4.85,-21.3
CSc1nc(N)c2ncn([C@@H]3O[C@H](COP(=O)(O)OP(=O)(O)O)C(O)[C@H]3O)c2n1 (stereo partly drawn),-8.42,-23.1,-28.2,-25.9,-26.9

SMILES,"activity change, negative = inhibition [1] [%]","activity change, negative = inhibition [2] [%]","activity change, negative = inhibition [3] [%]","activity change, negative = inhibition [4] [%]","activity change, negative = inhibition [5] [%]"
CCC1c2ccc(C)n2CCN1C(=O)Nc1ccc(F)cc1F (stereo not drawn),1.69,0.126,-14.9,-10.8,0.474
O=C(NN1CCCCC1)c1nn(-c2ccc(Cl)cc2Cl)c(-c2ccc(C#Cc3ccc(C(F)(F)F)cc3)s2)c1CNS(=O)(=O)N1CCCC1,-5.09,-11.9,2.96,-2.34,10.8
Cc1cn2nc(C(=O)N3CCC(NC(=O)COc4ccccc4)CC3)cc2c(=O)[nH]1,-9.7,-13.6,-13.7,-8.66,-6.34
CC1=C[C@@H](CNC(=O)CCC(=O)O)[C@H](C(C)C)C[C@H]1Cc1nc2ccncc2[nH]1,-7.83,-16.2,-13.2,-7.68,-16.3
CCc1cccc(N2C(=O)c3c(C(=O)OC)ncn3CC2(C)C(=O)NC2CCCCCC2)c1 (stereo not drawn),0,12.3,4.61,8.74,5.57
CC(CCc1ccc(O)cc1)O[C@@H]1O[C@H](CO[C@@H]2OC(CO)[C@H](O)[C@H]2O)[C@@H](O)[C@H](O)[C@H]1O (stereo partly drawn),7.83,-3.65,7.47,0,5.77
Nc1c(-c2ccccc2)nc(Cl)c2c(O)n[nH]c(=O)c12,3.11,-13.9,0.108,-1.46,3.87
CSc1ccc(CNC(=O)C2(c3ccc(NS(C)(=O)=O)cc3)CCCCC2)cc1,-7.76,-20.1,-17.2,-8.28,-6.37
COc1ccc(CN2C(=O)c3cc4ccccc4n3CC2(C)C(=O)NC2CCCCCC2)cc1 (stereo not drawn),2.81,-16.7,-5.58,-4.05,-4.89
CC1CCC(NC(=O)CCc2nnc3n(Cc4ccc(F)cc4)c(=O)c4ccccc4n23)CC1 (stereo not drawn),3.81,-1.02,-0.913,-1.29,2.13
CC(C)(C)c1coc([C@@H]2COCCN2C2CCC2)n1,-9.34,-2.41,-7.75,-4.08,-3.69
O=C1OCc2cc3cccc(O[C@@H]4O[C@H](CO)[C@@H](O)[C@H](O)[C@H]4O)c3c(O)c21,-14.8,-31.4,-18.1,4.35,-3.78
COc1ccc(N2CCN(C(=O)CCc3nnc4n(CC(C)C)c(=O)c5ccccc5n34)CC2)cc1,19.3,-22.4,2.62,-12.1,9.3
O=C(NCCc1nc2ccccc2s1)[C@H]1CNC[C@@H](C(=O)N2CCOCC2)C1,-11.7,-14.9,-11.5,-7.76,-2.53
COc1ccc(-c2cc3n(n2)CC(C)(C(=O)NC2CCCCC2)N(Cc2ccccc2F)C3=O)cc1 (stereo not drawn),3.46,9.26,0.89,2.02,4.69
O=C(Cn1c(=O)oc2cc(S(=O)(=O)N3CCCC3)ccc21)NCc1ccc(Cl)cc1,0.783,-10.8,-5.29,-3.76,3.25
O=C(CCc1nnc2n(Cc3ccc(F)cc3)c(=O)c3ccccc3n12)Nc1ccccc1,-1.67,-11.5,-5.3,-2.45,-2.06
CN(CC1CCOC1)C(=O)c1ccco1 (stereo not drawn),-10.7,-9.51,-9.29,-4.45,-4.01
Clc1ccc(N2CCN(Cc3c[nH]c4ncccc34)CC2)cc1,-1.11,-15.4,-0.982,-11.1,-11.8
C[C@@H]1CCNC(=O)c2cc3ccc(C(=O)Nc4nc5ccccc5n4CCCN(C)C)cc3n21,-10.6,-29.4,-6.18,-12,-36.1
CCOc1ccccc1NC(=O)Cn1c(=O)oc2cc(S(=O)(=O)NCc3ccccc3)ccc21,1.27,-0.609,1.03,3.8,1.86
CCC/C=C/C(=O)O[C@H]1CC(C)(C)CC2[C@]13[C@H](O)O[C@@]21CCC2[C@@]4(C)CC[C@H](O[C@@H]5O[C@H](C(=O)O)[C@@H](O)[C@H](O[C@@H]6O[C@H](CO)[C@H](O)[C@H](O)[C@H]6O[C@@H]6O[C@@H](C)[C@H](O)[C@@H](O)[C@H]6O[C@@H]6OC[C@](O)(CO)[C@H]6O)[C@H]5O[C@@H]5O[C@H](CO)[C@H](O)[C@H](O)[C@H]5O)C(C)(C)C4CC[C@@]2(C)[C@]1(C)C[C@H]3OC(C)=O (stereo partly drawn),4.29,-5.66,5.55,2.92,2.43
CC1CC(C)CN(S(=O)(=O)c2ccc3c(c2)oc(=O)n3CC(=O)Nc2nccs2)C1 (stereo not drawn),1.2,-3.13,-10.2,-4.79,-1.23
O=C(Cc1cccc(Cl)c1)N1CCC2(CN[S+](=O)([O-])c3cccnc3O2)C1 (stereo not drawn),3.52,-0.535,1.81,-2.57,2.83
CC1CCC2C(C(=O)O)=CC3(O)CC(C)(C)CC123 (stereo not drawn),-1.15,-12.5,3.08,4.47,9.8
CCOc1ccc(CNC(=O)c2cc3n(n2)CC(C)(C(=O)NC2CCCC2)N(CC)C3=O)cc1 (stereo not drawn),3.62,3.03,0.289,0.843,-3.08
COc1ccc(Br)cc1CNC(=O)c1ccc(N2C(=O)Cn3c(cc4sccc43)C2=O)cc1,-0.485,-17.4,-17.6,-10.4,-12.3
